{"source": "the antibiotic and cytotoxicity screens of Wong et al. (2023)", "note": "The other results are listed elsewhere or left out."}
{"system": "HSkMC (human skeletal muscle cells)", "assay": "cytotoxicity call (relative viability < 0.9)", "settings": "10 µM"}
{"smiles": "Cc1ccc(S(=O)(=O)Nc2cccc3c2O[C@@H](CN(C)Cc2ccc(C(F)(F)F)cc2)[C@H](C)CN([C@H](C)CO)C3=O)cc1", "cytotoxicity call": "inactive"}
{"smiles": "Cc1noc(C)c1S(=O)(=O)N(C)C[C@H]1Oc2ccc(NS(=O)(=O)c3cn(C)cn3)cc2C(=O)N([C@H](C)CO)C[C@H]1C", "cytotoxicity call": "inactive"}
{"smiles": "O=C(O)c1csc2c1CCCCC2", "cytotoxicity call": "inactive"}
{"smiles": "C[C@@H]1CN([C@H](C)CO)C(=O)c2cccc(NS(=O)(=O)c3cccs3)c2O[C@H]1CN(C)Cc1ccc(Oc2ccccc2)cc1", "cytotoxicity call": "inactive"}
{"smiles": "C[C@@H]1CCCCO[C@H](CN(C)Cc2ccc(C(F)(F)F)cc2)[C@@H](C)CN([C@H](C)CO)C(=O)c2cc(NC(=O)c3ccncc3)ccc2O1", "cytotoxicity call": "inactive"}
{"smiles": "NNC(=O)CNc1ccc2c(c1)OCO2", "cytotoxicity call": "inactive"}
{"smiles": "CC(=O)N1CC(=O)N(c2cnn(C)c2)C[C@]12CCN(C(=O)N(C)C)C2", "cytotoxicity call": "inactive"}
{"smiles": "Cc1noc(C)c1NC(=O)Nc1ccc2c(c1)CC(=O)N([C@H](C)CO)C[C@H](C)[C@H](CN(C)Cc1ccc(Oc3ccccc3)cc1)O2", "cytotoxicity call": "inactive"}
{"smiles": "Cn1c(=O)[nH]c(=O)c2c1ncn2CCN1CCOCC1", "cytotoxicity call": "inactive"}
{"smiles": "C[C@H]1CCCCO[C@@H](CN(C)S(C)(=O)=O)[C@@H](C)CN([C@@H](C)CO)C(=O)c2cc(N(C)C)ccc2O1", "cytotoxicity call": "inactive"}
{"smiles": "CC(C)CC#Cc1cnc2c(c1)C(=O)N([C@H](C)CO)C[C@H](C)[C@@H](CN(C)C(=O)CCN1CCCCC1)O2", "cytotoxicity call": "inactive"}
{"smiles": "C[C@H](CO)N1C[C@H](C)[C@@H](CN(C)CC2CCCCC2)Oc2c(NC(=O)Cn3cnnn3)cccc2C1=O", "cytotoxicity call": "inactive"}
{"smiles": "COc1ccc(NC(=O)Nc2ccc3c(c2)C(=O)N([C@@H](C)CO)C[C@@H](C)[C@H](CN(C)Cc2ccncc2)OCCCC[C@@H](C)O3)cc1", "cytotoxicity call": "inactive"}
{"smiles": "CC(=O)n1cc([C@@H]2C=C(C(=O)N3CCN(Cc4ccccc4)CC3)O[C@H](OCc3ccc(CO)cc3)C2)c2ccccc21", "cytotoxicity call": "inactive"}
{"smiles": "Cc1ccc(C(=O)Nc2cccc(C(F)(F)F)c2)cc1Nc1nc(-c2cccnc2)nc2c1cnn2C", "cytotoxicity call": "inactive"}
{"smiles": "C[C@@H]1CN([C@H](C)CO)C(=O)Cc2cc(NC(=O)CCCCCC(=O)Nc3ccccc3N)ccc2O[C@H]1CN(C)C(=O)Nc1cccc2ccccc12", "cytotoxicity call": "inactive"}
{"smiles": "C[C@@H]1CN([C@@H](C)CO)S(=O)(=O)c2ccc(C#CCN(C)C)cc2O[C@H]1CN(C)C(=O)CN(C)C", "cytotoxicity call": "inactive"}
{"smiles": "Cc1noc(C)c1S(=O)(=O)Nc1ccc2c(c1)C(=O)N([C@@H](C)CO)C[C@H](C)[C@H](CN(C)C(=O)NC(C)C)O2", "cytotoxicity call": "inactive"}
{"smiles": "N#C[C@H]1[C@H](c2ccc(C#Cc3ccccn3)cc2)[C@@H](CO)N1C(=O)CN1CCOCC1", "cytotoxicity call": "inactive"}
{"smiles": "Cc1noc(C)c1NC(=O)N(C)C[C@H]1OCCCC[C@@H](C)Oc2ccc(NS(=O)(=O)c3ccc(Cl)cc3)cc2C(=O)N([C@H](C)CO)C[C@@H]1C", "cytotoxicity call": "inactive"}
{"smiles": "C[C@@H]1CCCCO[C@H](CN(C)C(=O)c2ccccc2)[C@H](C)CN([C@@H](C)CO)C(=O)c2cc(NC(=O)Cc3ccccc3)ccc2O1", "cytotoxicity call": "inactive"}
{"smiles": "C[C@H](CO)N1C[C@H](C)[C@@H](CN(C)S(=O)(=O)c2cccs2)Oc2ccc(NC(=O)c3ccncc3)cc2C1=O", "cytotoxicity call": "inactive"}
{"smiles": "C[C@@H]1CN([C@@H](C)CO)C(=O)c2cc(NS(=O)(=O)c3cccs3)ccc2O[C@@H]1CN(C)S(C)(=O)=O", "cytotoxicity call": "inactive"}
{"smiles": "C[C@@H]1CCCCO[C@@H](CN(C)C(=O)Nc2ccc(C(F)(F)F)cc2)[C@H](C)CN([C@H](C)CO)C(=O)c2cc(NC(=O)c3ccncc3)ccc2O1", "cytotoxicity call": "inactive"}
{"smiles": "C[C@@H]1CN([C@H](C)CO)C(=O)c2cc(NC(=O)Cn3cnnn3)ccc2O[C@@H]1CN(C)Cc1ccncc1", "cytotoxicity call": "inactive"}
{"smiles": "Cc1noc(C)c1S(=O)(=O)N(C)C[C@@H]1Oc2ccc(NS(=O)(=O)c3ccc(Cl)cc3)cc2CC(=O)N([C@H](C)CO)C[C@H]1C", "cytotoxicity call": "inactive"}
{"smiles": "CC(C)NC(=O)N(C)C[C@H]1Oc2ccc(NS(=O)(=O)c3ccc(F)cc3)cc2CC(=O)N([C@@H](C)CO)C[C@H]1C", "cytotoxicity call": "inactive"}
{"smiles": "C[C@@H]1CCCCO[C@@H](CN(C)S(=O)(=O)c2cn(C)cn2)[C@@H](C)CN([C@@H](C)CO)C(=O)c2cc(NC(=O)Nc3ccc(C(F)(F)F)cc3)ccc2O1", "cytotoxicity call": "inactive"}
{"smiles": "NS(=O)(=O)c1ccc2c(c1)COC2", "cytotoxicity call": "inactive"}
{"smiles": "C[C@@H]1CCCCO[C@H](CN(C)S(C)(=O)=O)[C@H](C)CN([C@@H](C)CO)C(=O)c2cc(NS(=O)(=O)c3ccc(F)cc3)ccc2O1", "cytotoxicity call": "inactive"}
